Changes are numbered by the printed parent chain; changes in the protein carry UniProt numbers. The list shows a part of the results.
T1: RBFOX1 RRM (Homo sapiens, UniProt Q9NWB1 109-208)
T1 sequence: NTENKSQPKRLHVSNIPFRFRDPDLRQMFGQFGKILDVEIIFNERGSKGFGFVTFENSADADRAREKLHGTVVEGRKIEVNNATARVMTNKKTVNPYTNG

B1: GCCGGCU (DNA:RNA)
RNA: GGGAGACCGGAAUUCAGAUUGUCCGCCGGCUUUAAAUCCCGUCGUAGCCACCA
DNA 1: CAATCTGAATTCCGGTCTCCC
DNA 2: TGGTGGCTACGACGGGATT
B2: CCGGGCC (DNA:RNA)
RNA: B1 RNA with G25C, C27G, U31C
DNA 1: CAATCTGAATTCCGGTCTCCC
DNA 2: TGGTGGCTACGACGGGATT
B3: CUAUUUA (DNA:RNA)
RNA: GGGAGACCGGAAUUCAGAUUGUCCCUAUUUAUUAAAUCCCGUCGUAGCCACCA
DNA 1: CAATCTGAATTCCGGTCTCCC
DNA 2: TGGTGGCTACGACGGGATT
B4: CUGGGUC (DNA:RNA)
RNA: B3 RNA with A27G, U28G, U29G, A31C
DNA 1: CAATCTGAATTCCGGTCTCCC
DNA 2: TGGTGGCTACGACGGGATT
B5: AGGUACA (DNA:RNA)
RNA: B3 RNA with C25A, U26G, A27G, U29A, U30C
DNA 1: CAATCTGAATTCCGGTCTCCC
DNA 2: TGGTGGCTACGACGGGATT
B6: GUAUUAU (DNA:RNA)
RNA: B3 RNA with C25G, U30A, A31U
DNA 1: CAATCTGAATTCCGGTCTCCC
DNA 2: TGGTGGCTACGACGGGATT
B7: UGGCAUG (DNA:RNA)
RNA: B3 RNA with C25U, U26G, A27G, U28C, U29A, A31G
DNA 1: CAATCTGAATTCCGGTCTCCC
DNA 2: TGGTGGCTACGACGGGATT
B8: AAUUCAA (DNA:RNA)
RNA: B3 RNA with C25A, U26A, A27U, U29C, U30A
DNA 1: CAATCTGAATTCCGGTCTCCC
DNA 2: TGGTGGCTACGACGGGATT
B9: UAGGCUG (DNA:RNA)
RNA: B3 RNA with C25U, U26A, A27G, U28G, U29C, A31G
DNA 1: CAATCTGAATTCCGGTCTCCC
DNA 2: TGGTGGCTACGACGGGATT
B10: UCCCCCU (DNA:RNA)
RNA: B1 RNA with G25U, G28C, G29C
DNA 1: CAATCTGAATTCCGGTCTCCC
DNA 2: TGGTGGCTACGACGGGATT
B11: AUUAAGG (DNA:RNA)
RNA: B3 RNA with C25A, A27U, U28A, U29A, U30G, A31G
DNA 1: CAATCTGAATTCCGGTCTCCC
DNA 2: TGGTGGCTACGACGGGATT
B12: CGGGAAU (DNA:RNA)
RNA: B1 RNA with G25C, C26G, C27G, G29A, C30A
DNA 1: CAATCTGAATTCCGGTCTCCC
DNA 2: TGGTGGCTACGACGGGATT
B13: GUCACUA (DNA:RNA)
RNA: B3 RNA with C25G, A27C, U28A, U29C
DNA 1: CAATCTGAATTCCGGTCTCCC
DNA 2: TGGTGGCTACGACGGGATT
B14: UGGUCGC (DNA:RNA)
RNA: B3 RNA with C25U, U26G, A27G, U29C, U30G, A31C
DNA 1: CAATCTGAATTCCGGTCTCCC
DNA 2: TGGTGGCTACGACGGGATT
B15: ACGGAGU (DNA:RNA)
RNA: B1 RNA with G25A, C27G, G29A, C30G
DNA 1: CAATCTGAATTCCGGTCTCCC
DNA 2: TGGTGGCTACGACGGGATT
B16: UAACAGU (DNA:RNA)
RNA: B3 RNA with C25U, U26A, U28C, U29A, U30G, A31U
DNA 1: CAATCTGAATTCCGGTCTCCC
DNA 2: TGGTGGCTACGACGGGATT
B17: GCCGAUU (DNA:RNA)
RNA: B1 RNA with G29A, C30U
DNA 1: CAATCTGAATTCCGGTCTCCC
DNA 2: TGGTGGCTACGACGGGATT
B18: GUCCGAG (DNA:RNA)
RNA: B1 RNA with C26U, G28C, C30A, U31G
DNA 1: CAATCTGAATTCCGGTCTCCC
DNA 2: TGGTGGCTACGACGGGATT
B19: GAUUCAA (DNA:RNA)
RNA: B3 RNA with C25G, U26A, A27U, U29C, U30A
DNA 1: CAATCTGAATTCCGGTCTCCC
DNA 2: TGGTGGCTACGACGGGATT
B20: GGGGGAU (DNA:RNA)
RNA: B1 RNA with C26G, C27G, C30A
DNA 1: CAATCTGAATTCCGGTCTCCC
DNA 2: TGGTGGCTACGACGGGATT

What follows are binders tested against T1, RBFOX1 RRM (assay: EMSA; HiTS-Eq, 1 nM pool, 10 min; buffer printed only for the single-RNA assays: 10 mM Tris pH 7.5, 150 mM NaCl, 3.4 mM EDTA, 0.001% NP-40, 30 C). Conditions: tags: His6 N-terminal (pET28a); label: 5' 32P.
Summary of the method: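 These values rest on relative association constants, computed from read-count changes of each RNA species versus the control reaction and normalised to the cognate motif. Reads came from free RNA recovered by 8% native PAGE after purified RbFox RRM (wild type or mutant) at increasing concentrations was equilibrated for 10 min in 50 µL with 1 nM of a 5′-radiolabelled pool with 7 randomized nucleotides and DNA-annealed flanks.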
In the case of B1, the binding signal is reported as 0.0209 KA relative to UGCAUGU.
In the case of B2, the binding signal is reported as 0.0146 KA relative to UGCAUGU.
In the case of B3, the binding signal is reported as 0.00555 KA relative to UGCAUGU.
With B4 the binding signal was 0.0291 KA relative to UGCAUGU.
With B5 the binding signal was 0.00746 KA relative to UGCAUGU.
With B6 the binding signal was 0.0031 KA relative to UGCAUGU.
In the case of B7, the binding signal is reported as 0.696 KA relative to UGCAUGU.
With B8 the binding signal was 0.00106 KA relative to UGCAUGU.
In the case of B9, the binding signal is reported as 0.0229 KA relative to UGCAUGU.
For B10, the binding signal was 0.00784 KA relative to UGCAUGU.
With B11 the binding signal was 0.00849 KA relative to UGCAUGU.
In the case of B12, the binding signal is reported as 0.0246 KA relative to UGCAUGU.
For B13, the binding signal was 0.00277 KA relative to UGCAUGU.
For B14, the binding signal was 0.016 KA relative to UGCAUGU.
B15 was tested, and the binding signal was 0.00654 KA relative to UGCAUGU.
B16 was tested, and the binding signal was 0.00639 KA relative to UGCAUGU.
In the case of B17, the binding signal is reported as 0.0145 KA relative to UGCAUGU.
For B18, the binding signal was 0.0163 KA relative to UGCAUGU.
For B19, the binding signal was 0.0073 KA relative to UGCAUGU.
In the case of B20, the binding signal is reported as 0.0252 KA relative to UGCAUGU.
